The source of these data is patent publication US9566281B2 (Westfaelische Wilhelms-Universitaet, priority 2012, dated 2017).

The test system of the test is H1N1pdm09 (RB1).

In the case of `CCCS(=O)(=O)Nc1ccc(F)c(C(=O)c2c[nH]c3ncc(-c4ccc(Cl)cc4)cc23)c1F` [PLX-4032], the antiviral potency entry is “potent”.

Consider `Cc1cc(C(=O)NOCCO)c(Nc2ccc(I)cc2F)n(C)c1=O` [AZD-8330], for which the antiviral potency entry was “very potent”.
